Test results: PubChem BioAssay AID493208 (National Center for Advancing Translational Sciences (NCATS), 2011)
About 340 (0.77%) of roughly 44,000 compounds were called active. Inconclusive means that the source gave no clear call. Such entries were picked first, then a sample of the others. The call rests on the fitted dose curve; in most records, active means well fitted inhibition curve with a large enough effect; inconclusive means small, poorly fitted or top-dose-only effect; inactive means flat fitted curve, though single readings scatter. Potencies of inconclusive entries are left out as doubtful fits.

experiment: Acumen qHTS Assay for Inhibitors of the mTORC1 Signaling Pathway in MEF (Tsc2-/-, p53-/-) Cells: Sytravon; details: phospho-rpS6 immunofluorescence/PI, 24 h; series mostly up to 38.3 µM; further: nearly all actives have a fitted effect of over 50% in size
Method in brief: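 Readout is phospho-S6 Alexa 488 signal normalized to PI per well, reported as % active cells with thresholds set from rapamycin (7.5 nM) and DMSO controls. Cells: Tsc2-/-, p53-/- MEFs, 24 hrs compound at 37 C; PI cell number serves as viability.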
Potency means the concentration at half of the fitted maximal effect; tags describe the fitted curve by direction and shape.

Compound | Potency
Cc1ccc(NC(=O)c2nc(S(C)(=O)=O)ncc2N(Cc2ccco2)Cc2ccccc2F)c(C)c1 | inactive
O=C(Nc1ccc(C(F)(F)F)cc1)c1cc(S(=O)(=O)NC2CCCCCC2)ccc1F | inconclusive [falling, single point]
CCc1ccc(NC(=O)c2cc(S(=O)(=O)NC3CCCC3)ccc2F)cc1 | inconclusive [falling, single point]
COc1ccccc1CNC(=O)c1ccccc1NC(=O)c1nsc2ccccc12 | inconclusive [falling, partial curve, poor fit]
CCOC(=O)c1[nH]c2ccccc2c1NC(=O)c1ccccc1OCC | inconclusive [falling, partial curve, poor fit]
O=C(Nc1ccccc1F)c1nc(S(=O)(=O)Cc2ccccc2F)ncc1Cl | active: 1.17 µM
Clc1cccc(-n2ncc3c(NC4CCCCC4)ncnc32)c1 | inconclusive [falling, single point]
CCCNC(=O)c1ccc2c(c1)N=C(C)c1c(C)ccc(C)c1S2 | inconclusive [falling, full curve, poor fit]
CCOC(=O)C1CCN(C(=O)c2cc3ccc4cccnc4c3[nH]2)CC1 | inactive
COC(=O)c1ccccc1NS(=O)(=O)c1cc2c(cc1C)N(C)CCO2 | inactive
Oc1c(C(Nc2ccccn2)c2ccccc2F)ccc2cccnc12 (configuration not stated) | inconclusive [falling, single point]
Cc1oc(-c2cccc(Cl)c2)nc1CN1CCC(C(=O)NC(C)C)CC1 | inactive
Cc1cc(Nc2ccc(Br)cc2)n2nc(-c3ccccc3C)nc2n1 | inactive
CCCCCCOc1ccc(/C=C/C(=O)Nc2sc3c(c2C(=O)OC)CCC3)cc1OC | inactive
CC(C)c1ccc(C2Sc3ccccc3NC3=C2C(=O)c2ccccc23)cc1 (configuration not stated) | inconclusive [falling, partial curve, poor fit]
Cn1nnnc1SCCCNCc1ccc(Cl)cc1 | inactive
O=C(Nc1cc(Cl)ccc1Cl)c1cc(S(=O)(=O)NCCc2ccccc2)ccc1F | inconclusive [falling, single point]
Cc1ccc(CN2COc3ccc4c(C)cc(=O)oc4c3C2)cc1 | inactive
COc1ccc(-n2nc3c(N4CCC(C(=O)NCc5cccc(F)c5)CC4)nnc(C)c3c2C)cc1 | inactive
COc1ccc(C(=O)Nc2cccc(-c3cn4ccsc4n3)c2)cc1OC | inconclusive [falling, single point]
COc1ccccc1C(=O)Nc1ccc2nc(N3CCC(C)CC3)cc(C)c2c1 | inconclusive [falling, single point]
CCOc1ccc(CNC(=O)CCC(=O)N2CC3CCCN3c3ccccc32)cc1 (configuration not stated) | inactive
Cc1c(C(=O)NCc2ccc(Cl)cc2)sc2nc3n(c(=O)c12)CCCC3 | inactive

Compound | Potency
COc1ccc(C2CC(=O)c3c([nH]c(C(=O)OC4CCC(C)CC4)c3C)C2)cc1OC (configuration not stated) | inactive
Cc1ccc2cccc(NC(=O)c3cccc4ccccc34)c2n1 | inconclusive [falling, partial curve, poor fit]
Cc1ccc(CN(C(=O)c2ccc(C(C)(C)C)cc2)c2ccccn2)o1 | inconclusive [falling, partial curve, poor fit]
COc1ccc(Cl)cc1NC(=O)c1c(NCc2ccc(C)o2)sc2c1CCC(C)C2 (configuration not stated) | inconclusive [falling, single point]
Cc1ccc(CN2C(=O)C(O)(c3c(C)[nH]c4ccccc34)c3ccccc32)cc1 (configuration not stated) | inconclusive [falling, full curve, poor fit]
CCc1ccc(OCC(=O)Nc2ccc3c(c2)c2ccccc2n3CC)cc1 | inconclusive [falling, single point]
Oc1ccccc1-c1nc(-c2cccs2)c(-c2cccs2)[nH]1 | inconclusive [falling, single point]
Cc1ccc(CNC(=O)Cn2c(SCC(=O)Nc3ccc(F)cc3)nc3ccccc32)cc1 | inconclusive [falling, partial curve, poor fit]
CCn1cc(CNC(=O)c2cc(-c3ccc(C)cc3)nc3ccc(Br)cc23)c(C)n1 | inactive
O=C(NCc1ccccc1)C(=O)Nc1c2c(nn1-c1ccc(F)cc1)CSC2 | inconclusive [falling, single point]
CCOc1ccc(CCNC(=O)c2cc3c(-c4ccccc4F)nn(C)c3s2)cc1 | inconclusive [falling, single point]
CCc1ccc(CNC(=O)CCCn2ccc3cc(S(=O)(=O)N4CCCC4)ccc32)cc1 | inconclusive [falling, full curve, poor fit]
COc1ccccc1Cc1nc2ccccc2nc1SCC(=O)N1CCCCC1 | inconclusive [falling, single point]
CCCCOc1ccccc1NC(=O)CC1Sc2ccccc2NC1=O (configuration not stated) | inconclusive [falling, single point]
O=C(Cn1cc(SCc2ccc(F)cc2)c2ccccc21)N1CCCCCC1 | inconclusive [falling, single point]
O=C(CCCCn1c(=O)[nH]c2ccsc2c1=O)N1CCN(c2cccc(C(F)(F)F)c2)CC1 | inconclusive [falling, partial curve, poor fit]
COc1ccccc1CCNC(=O)C(=O)NCC(c1ccco1)S(=O)(=O)c1cccs1 (configuration not stated) | inactive
Cc1cccc(C(=O)NCC(c2cccs2)S(=O)(=O)c2cccs2)c1 (configuration not stated) | inactive
CCOCCc1nn2c(=O)cc(COC(=O)c3ccccc3NC(=O)c3ccccc3F)nc2s1 | inactive
CCOCCCn1c(=N)c(C(=O)NC(C)c2ccccc2)cc2c(=O)n3cc(C)ccc3nc21 (configuration not stated) | inactive
Cc1ccn2c(NC(=O)c3cccc(Cl)c3)c(-c3ccccc3)nc2c1 | inconclusive [falling, single point]
CCc1ccc(CNc2ncc(-c3cccc(OC)c3)n2C)cc1 | active: 13.1 µM
Cc1cccc(C)c1NC(=O)Cn1c(=O)n(Cc2ccc(C(=O)NCc3ccco3)cc2)c(=O)c2sccc21 | inconclusive [falling, single point]

Compound | Potency
Cc1cccc(N2CCN(C(=O)c3ccc4nc(N5CCC(C)CC5)sc4c3)CC2)c1C | inactive
COc1ccc2[nH]cc(CCNC(=O)Nc3ccccc3)c2c1 | inactive
COCCn1c(C)cc(O)c(C(c2ccccc2)N2CCN(CCO)CC2)c1=O (configuration not stated) | inconclusive [falling, single point]
O=C(Nc1ccccc1OCc1cc(=O)n2ccccc2n1)c1cccc(Br)c1 | inconclusive [falling, partial curve, poor fit]
Cc1ccc(CCNC(=O)CCCn2c(=O)c3ccccc3n(CC(=O)Nc3cc(Cl)ccc3C)c2=O)cc1 | inconclusive [falling, single point]
Cc1c(Cl)cccc1NC(=O)c1ccc2c(c1)nnn2C1CCCC1 | inconclusive [falling, single point]
Cc1ccc(-c2noc(-c3ccccc3NC(=O)C3CC(=O)N(c4cccc(C)c4)C3)n2)cc1 (configuration not stated) | inconclusive [falling, single point]
CC1=Nc2cc(C(=O)NC3CCCCC3)ccc2Sc2ccc(Cl)cc21 | inconclusive [falling, partial curve, poor fit]
COc1ccc(NC(=O)c2coc(=O)c3ccccc23)cc1OC | inconclusive [falling, partial curve, poor fit]
COc1cccc(NC(=O)Nc2ccc3nc(N4CCN(C)CC4)cc(C)c3c2)c1 | inconclusive [falling, single point]
CC1CCN(c2ccc(-c3nc(-c4ccccc4)no3)cc2[N+](=O)[O-])CC1 | inconclusive [falling, partial curve]
CCOc1ccccc1-c1noc(CSc2nnc(-c3ccccc3)n2-c2cccc(C)c2)n1 | inactive
CCOC(=O)c1c(Nc2cccc(C(=O)OC)c2)nnc(-c2ccccc2)c1-c1ccccc1 | inconclusive [falling, single point]
CC1CCc2c(sc(NC(=O)Cn3nnc(-c4ccc(C(F)(F)F)cc4)n3)c2C#N)C1 (configuration not stated) | inconclusive [falling, full curve, poor fit]
CCc1ccc(NC(=O)CSc2nc3n[nH]c(C)c3c(=N)n2-c2ccc(C)cc2)cc1 | inconclusive [falling, full curve, poor fit]
CCOC(=O)c1c(NC(=O)c2ccc(S(=O)(=O)N3CCC(C)CC3)cc2)sc2c1CCN(C(C)C)C2 | inconclusive [falling, single point]
COc1ccccc1OCCn1c(NC(=O)c2ccccc2Cl)nc2ccccc21 | inconclusive [falling, single point]
Cc1ccc(Nc2nc3nonc3nc2Nc2cccc(C(F)(F)F)c2)cc1Cl | inconclusive [falling, single point]
Cc1ccc(NC(=O)C(Cc2c[nH]c3ccccc23)NC(=O)OC(C)(C)C)c(C)c1 (configuration not stated) | inconclusive [falling, single point]
CCc1ccc(C(=O)c2cn(CC(=O)Nc3ccc4c(c3)OCO4)c3ccc(CC)cc3c2=O)cc1 | inactive
Cc1cc2c(n1-c1ccc(C(=O)NCCc3ccc(Cl)cc3)cc1)CCCC2 | inactive
